# Measurements as given in PubChem BioAssay AID1159614 (National Center for Advancing Translational Sciences (NCATS), 2016).
# The whole screen tested about 45,000 compounds, of which about 65 (0.1%) were called active. Calls follow the shape of the dose curve; as a rule, active = well fitted activation curve with a large enough effect; inconclusive = small, poorly fitted or top-dose-only effect; inactive = no such curve, though single readings can be large or run the other way. The list shows a part of the results.
# Biological target: Galactocerebrosidase (Homo sapiens) (UniProt P54803)
# Chain of UniProt P54803 (P54803 whole entry, looked up): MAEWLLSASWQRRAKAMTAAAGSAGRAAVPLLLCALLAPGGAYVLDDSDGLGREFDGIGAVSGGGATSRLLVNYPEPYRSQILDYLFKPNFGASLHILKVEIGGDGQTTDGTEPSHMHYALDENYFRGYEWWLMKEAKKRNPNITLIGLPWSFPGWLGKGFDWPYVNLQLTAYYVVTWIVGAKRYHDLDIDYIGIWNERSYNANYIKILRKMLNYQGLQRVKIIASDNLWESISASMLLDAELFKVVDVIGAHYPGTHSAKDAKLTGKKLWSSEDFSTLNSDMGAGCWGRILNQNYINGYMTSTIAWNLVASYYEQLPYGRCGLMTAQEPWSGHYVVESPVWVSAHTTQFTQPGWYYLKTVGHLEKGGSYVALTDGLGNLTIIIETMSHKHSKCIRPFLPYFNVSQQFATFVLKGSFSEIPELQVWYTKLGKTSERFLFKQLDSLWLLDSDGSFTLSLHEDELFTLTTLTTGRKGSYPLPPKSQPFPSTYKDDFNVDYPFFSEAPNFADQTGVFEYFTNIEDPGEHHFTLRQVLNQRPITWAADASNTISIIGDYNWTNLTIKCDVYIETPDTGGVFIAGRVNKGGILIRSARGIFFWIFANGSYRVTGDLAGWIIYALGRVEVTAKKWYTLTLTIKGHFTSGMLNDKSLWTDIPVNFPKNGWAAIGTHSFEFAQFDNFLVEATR
# Assay: A Novel Cell-Based Assay to Identify Small Molecules for B -Galactocerebrosidase; also: 0% is about no effect; nearly all actives have a fitted effect of over 65% in size
# Conditions: 145M-Twi-hGALC-G270D cells (Twitcher mouse brain line with human GALC G270D), HMU-beta-Gal fluorescence, 48 h; series mostly up to 57.5 µM; activation: at the top concentration
# Outline: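 Fluorescence readout: HMU-β-gal cleavage by mutant GALC (0.1 mM final, citrate/phosphate pH 5.2 with 1 mg/mL taurocholate), stopped with carbonate/bicarbonate plus Triton X-100. Cells: murine Twitcher 145M-Twi expressing human G270D GALC; qHTS for activators.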
row,SMILES,activation
1,CC(C)NC(=O)c1ccccc1NC(=O)c1nsc2ccccc12,inactive: -20.5%
2,CCN(CC)S(=O)(=O)c1ccc2c(c1)N(CC(=O)Nc1ccc(C)cc1C)C(=O)C1CCCN21 (stereo not drawn),inactive: -11.4%
3,COc1cc(NC(=O)Cn2nc(-c3ccc(C)c(C)c3)ccc2=O)cc(OC)c1,inactive: -13.1%
4,Cc1ccc(S(=O)(=O)c2nc(S(C)(=O)=O)sc2NCc2ccccc2)cc1,inactive: -11.8%
5,CCOC(=O)c1c(C)oc2nc(C)nc(NCCc3ccc(SC)cc3)c12,inactive: -20.9%
6,COc1ccc(C(=O)CCC(=O)Nc2ccc(OC)c(Cl)c2)cc1,inactive: -18.2%
7,CCOC(=O)c1[nH]c2c(c1Cc1ccccc1OC)C(=O)CC(c1ccc(OCC)cc1)C2 (stereo not drawn),inactive: -15.8%
8,Cc1ccc2c(c1)c1c(c(=O)n(Cc3ccccc3)c(=O)n1CC(=O)NCc1ccccc1Cl)n2C,inactive: -1.12%
9,O=S(=O)(c1ccc2c(c1)CCN2)N1CCCCCC1,inactive: -21.4%
10,Cc1cccc(C)c1Nc1nc2ccccc2nc1NS(=O)(=O)c1ccccc1,inactive: -26.5%
11,CCC(C)OC(=O)/C(C#N)=C\c1ccc(-c2cccc(C(F)(F)F)c2)o1 (stereo not drawn),inactive: -33.9%
12,COc1ccc(C(C)n2c(C)c3c(C)nnc(C)c3c2C)cc1 (stereo not drawn),inactive: -17.8%
13,COc1ccc(S(=O)(=O)N(CC(=O)NCc2ccccc2)c2ccc(C)cc2)cc1OC,inactive: -15.5%
14,CN(C(=O)CN1C(=O)CCSc2ccc(S(=O)(=O)N3CCCC3)cc21)c1ccccc1,inactive: -6.55%
15,O=C(Cn1c(=O)nc(-c2ccccc2)c2ccccc21)NCc1ccc(F)cc1,inactive: 4.33%
16,Cc1cccc(NC2=CC(c3cccc(Br)c3)N(c3cccc(C)c3)C2=O)c1 (stereo not drawn),inactive: -8.14%
17,CCOC(=O)c1c(C)[nH]c(C)c1S(=O)(=O)NCC(=O)N1CCN(c2cccc(C)c2)C(C)C1 (stereo not drawn),inactive: -12.2%
18,Cc1cc(O)c(C(c2ccccc2)N2CCN(C)CC2)c(=O)n1Cc1ccco1 (stereo not drawn),inactive: -24.3%
19,C=Cc1ccc(CN2C(=O)c3ccccc3Sc3ccc(C(=O)OCc4ccco4)cc32)cc1,inactive: -1.21%
20,O=C(Nc1ccccc1)N(Cc1ccc(F)cc1)c1ccccn1,inactive: 5.33%
21,CC1=C(C(=O)N2CCN(c3cccc(C)c3C)CC2)C2(CCCCC2)OC1=O,inactive: -15.9%

row,SMILES,activation
1,COc1ccc(-c2noc(CN(C(C)C)S(=O)(=O)c3ccc(Br)cc3)n2)cc1,inactive: -17.9%
2,COc1ccc(Br)cc1CNC(=O)c1nn(-c2ccc(C)cc2)c(=O)c2c1c1ccccc1n2C,inactive: -16.4%
3,CN(C)c1ccc(CNS(=O)(=O)c2ccc3[nH]c4c(c3c2)CCCCC4)cc1,inactive: -39%
4,Cc1ccc(CNC(=O)c2c(O)nc3c(C)cccn3c2=O)cc1,inactive: -16.6%
5,Cc1nc2ccc(S(=O)(=O)NC(CC(C)C)C(=O)N3CCN(c4ccc(F)cc4)CC3)cc2s1 (stereo not drawn),inactive: -13.1%
6,Fc1ccc(Cc2cn3cc(-c4ccccc4)nc3s2)cc1,inactive: -8.06%
7,O=C(C1CC1)N1CCN(c2nc3c(Cl)cccc3s2)CC1,inactive: -23.5%
8,COc1ccc(CCNC(=O)CSc2nnnn2-c2cccc(C(C)=O)c2)cc1OC,inactive: -3.44%
9,CCOC(=O)c1ccc(NC(=O)c2csnn2)cc1,inactive: -13.5%
10,CCOC(=O)c1cccc(NC(=O)CCC(=O)N2CC(C)Oc3ccc(C)cc32)c1 (stereo not drawn),inactive: -24.7%
11,Clc1ccccc1C(c1ccccc1)(c1ccccc1)n1ccnc1,inactive: -4.95%
12,NC(=O)NO,inactive: -17%
13,Cc1ccccc1-c1noc(-c2cccnc2N(C)Cc2ccc(Cl)cc2)n1,inactive: -9.49%
14,COc1cccc(CNC(=O)CSc2ncc(S(=O)(=O)c3ccc(Br)cc3)c(=O)[nH]2)c1,inactive: -10.5%
15,CC1CCN(S(=O)(=O)c2ccc3c(c2)N(CC(=O)NC(C)C)C(=O)CO3)CC1,inactive: -14.8%
16,Cc1c(C(=O)Nc2ccc(C(C)C)cc2)sc2nc[nH]c(=O)c12,inactive: -0.893%
17,COc1ccc(CNC(=O)CSc2ncc(S(=O)(=O)c3ccc(C)c(Cl)c3)c(=O)[nH]2)cc1,inactive: -7.89%
18,Cc1ccc(NC(=O)C2CCCN2S(=O)(=O)c2cccc3nsnc23)cc1Cl (stereo not drawn),inactive: -24.1%
19,COc1ccc(CNC(=O)c2ccc3c(c2)CCN3S(=O)(=O)c2ccc(C)cc2)cc1,inactive: -11.4%
20,CC1CCN(S(=O)(=O)c2ccc3c(c2)CCN3C(=O)Nc2ccc(Br)cc2)CC1,inactive: -7.36%
21,Cc1ccccc1C(=O)N1CCN(CCc2ccccn2)CC1,inactive: -4.2%

row,SMILES,activation
1,O=C(NCCc1ccccc1)C(=O)NCC(c1cccnc1)N1CCN(c2ccccc2F)CC1 (stereo not drawn),inactive: -8.12%
2,COc1ccccc1Nc1nn2c(=O)c3ccc(C(=O)NCc4ccc(F)cc4)cc3nc2s1,inactive: -24.2%
3,O=C(C1CCC(Cn2c(=O)c3sccc3n(Cc3cccc(F)c3)c2=O)CC1)N1CCCCC1 (stereo not drawn),inactive: -8.33%
4,CCc1cccc2c(-c3ccc(F)cc3)nc(SCC(=O)Nc3ccccc3)nc12,inactive: -0.231%
5,COc1ccc(C(=O)Nc2ccc(-c3cc4ccccc4oc3=O)c(C)c2)cc1OC,inactive: -13.9%
6,CC(C)CCNC(=O)C1CCN(C(=O)N2CCOc3ccc(Cl)cc32)CC1,inactive: -7.58%
7,COc1ccc(CCNC(=O)c2ccc(CS(=O)(=O)Cc3cccc(C)c3)o2)cc1OC,inactive: -13%
8,CCN1CCN(C(c2ccc(F)cc2)c2c(O)cc(C)n(CCOC)c2=O)CC1 (stereo not drawn),inactive: -14.1%
9,Cc1ccc(CNC(=O)C(=O)NCC(c2ccco2)S(=O)(=O)c2cccs2)cc1 (stereo not drawn),inactive: -16.3%
10,COc1ccc(-c2n[nH]c3c2C(c2ccc(O)cc2)N(c2ccc(Br)cc2)C3=O)cc1 (stereo not drawn),inactive: -19.7%
11,CSc1cccc(NC(=O)N2CCN(c3cc(-c4noc(C)n4)ccc3C)CC2)c1,inactive: -24.3%
12,CCOc1ccc(NC(=O)CSc2cn(CC(=O)N3CCCCCC3)c3ccccc23)cc1,inactive: -33.5%
13,COc1cc(C2CC(=O)N(c3ccccc3)C3=C2C(=O)OC3)cc(OC)c1OC (stereo not drawn),inactive: -2.38%
14,O=C(NC1CCCCCC1)c1ccc2c(c1)sc1nc(-c3ccccc3)cn12,inactive: -14.2%
15,CCOC(=O)c1c(C)[nH]c(C)c1S(=O)(=O)N1CCCC(C(=O)Nc2ccc(F)cc2F)C1 (stereo not drawn),inactive: 1.6%
16,C=C(C)CSc1nc2sc3c(c2c(=O)n1-c1ccccc1)CCC(C)C3 (stereo not drawn),inactive: -7.79%
17,CCN1CCN(c2ncnc3c2cnn3-c2ccc(C)cc2)CC1,inactive: -12.6%
18,CC(C)c1ccc(NC(=O)c2cc(S(=O)(=O)NCc3ccccc3Cl)ccc2F)cc1,inactive: -6.3%
19,Cc1cc2ccccc2n1CCNC(=O)c1cccc(Cl)c1,inactive: -10.8%
20,CCOc1ccc(NC(=O)CSC2=Nc3ccccc3C3=NC(CC(=O)NCc4ccco4)C(=O)N23)cc1 (stereo not drawn),inactive: -11.6%
21,COc1ccc(CNC(=O)CC(c2ccc(OC)c(OC)c2)N2Cc3ccccc3C2=O)cc1 (stereo not drawn),inactive: -1.52%
